Inconclusive results, whose numbers are uncertain, are shown with a selection of clear calls. For some of these results: A potency beside an inconclusive call is a rough fit, not a confirmed value. Activity calls are given as the source filed them. Unless noted, calls follow the shape of the dose curve; as a rule, active = well fitted curve in the direction sought with a large enough effect in the repeat runs; inconclusive = weak or mixed curves; inactive = no such curve, though single readings can be large; an effect the other way counts as inactive or inconclusive.
Tests used:
[1] = molecular target: Peroxisome proliferator-activated receptor gamma (Homo sapiens) (UniProt P37231); assay: qHTS assay to identify small molecule antagonists of the peroxisome proliferator-activated receptor gamma (PPARg) signaling pathway (AID 743191; calls by dose curve; also: nearly all actives have a fitted effect of over 30% in size; as to ratio activity, negative = inhibition: % is scaled to controls: 0 for no effect and ±100 for the full control effect); settings: HEK293H PPARg-UAS-bla, beta-lactamase ratio, antagonist, 17 h
Chain of UniProt P37231 (P37231 whole entry, looked up): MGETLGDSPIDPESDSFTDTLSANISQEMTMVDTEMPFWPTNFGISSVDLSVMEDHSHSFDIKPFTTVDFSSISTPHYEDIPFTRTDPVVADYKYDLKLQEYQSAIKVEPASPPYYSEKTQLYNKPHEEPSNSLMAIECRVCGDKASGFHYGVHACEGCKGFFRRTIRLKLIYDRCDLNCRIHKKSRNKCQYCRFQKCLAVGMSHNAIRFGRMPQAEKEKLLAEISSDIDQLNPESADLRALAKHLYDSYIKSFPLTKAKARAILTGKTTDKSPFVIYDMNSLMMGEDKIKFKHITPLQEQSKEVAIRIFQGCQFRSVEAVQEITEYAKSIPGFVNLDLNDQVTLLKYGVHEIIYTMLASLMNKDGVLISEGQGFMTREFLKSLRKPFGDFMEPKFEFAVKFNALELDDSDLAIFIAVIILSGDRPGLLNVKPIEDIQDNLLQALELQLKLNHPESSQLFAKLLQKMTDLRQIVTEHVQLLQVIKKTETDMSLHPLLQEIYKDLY
How it was run: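 GeneBLAzer PPARg UAS-bla HEK293H cells, 5 h post-plating, exposed to compounds 17 h at 37C. LiveBLAzer B/G FRET substrate added for 1 h at room temperature; beta-lactamase reporter read by fluorescence intensity.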

[2] = qHTS assay to identify small molecule antagonists of the peroxisome proliferator-activated receptor gamma (PPARg) signaling pathway - cell viability counter screen (AID 743194); settings: PPARg-bla HEK293H viability, CellTiter-Glo luminescence, 17 h, co-treated with 50 nM rosiglitazone; activity change, negative = cytotoxicity: at 62.6 µM (top of the series) unless noted; also: nearly all actives have a fitted effect of over 55% in size
How it was run: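 Cytotoxicity counter screen in PPARg-bla HEK293H cells, same wells as reporter assay. Compounds plus 50 nM rosiglitazone (final) for 17 h at 37 C, then viability read by CellTiter-Glo luminescence.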

[3] = qHTS assay for small molecule agonists of the antioxidant response element (ARE) signaling pathway (AID 743202; active = well fitted activation curve with a large enough effect in the signal ratio in the repeat runs, not every such curve was filed as active; inconclusive = weak or mixed curves, or effect the other way; inactive = no such curve, though single readings can be large or run the other way; the % refers to the signal ratio); settings: HepG2 ARE-bla reporter, beta-lactamase FRET, 16 h; activation: at 73.3 µM (top of the series) unless noted
How it was run: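 HepG2 ARE-bla cells; 16 h treatment at 37 C; FRET-based beta-lactamase fluorescence read after 2 h substrate incubation at room temperature.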

[4] = qHTS assay for small molecule activators of the heat shock response signaling pathway - cell viability counter screen (AID 743209); settings: HSE-bla HeLa viability, CellTiter-Glo luminescence, 5 h; activity change, negative = cytotoxicity: at 62.6 µM (top of the series) unless noted; also: nearly all actives have a fitted effect of over 50% in size
How it was run: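 Cytotoxicity counter screen run in parallel with the HSE beta-lactamase reporter, using the same wells. HeLa HSE-bla cells received compound for 5 h at 37 C; ATP-based CellTiter-Glo luminescence was measured after 30 min at room temperature.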

[5] = qHTS assay for small molecule activators of the heat shock response signaling pathway (AID 743210; active = well fitted activation curve with a large enough effect in the signal ratio in the repeat runs, with a control signal flat, not every such curve was filed as active; inconclusive = weak or mixed curves; the % refers to the signal ratio); settings: HeLa HSE-bla reporter, beta-lactamase ratio, 5 h; activation: at 62.6 µM (top of the series)
How it was run: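 Following overnight attachment, HSE-bla HeLa cells received test compounds for 5 h at 37 C; beta-lactamase activity was then detected via FRET substrate fluorescence.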

[6] = molecular target: Peroxisome proliferator-activated receptor delta (Homo sapiens) (UniProt Q03181); assay: qHTS assay to identify small molecule agonists of the peroxisome proliferator-activated receptor delta (PPARd) signaling pathway (AID 743212; calls by dose curve; as to activation: % is scaled to controls: 0 for no effect and ±100 for the full control effect); settings: HEK293H PPARd-UAS-bla, beta-lactamase FRET ratio, 17 h; activation: at 62.6 µM (top of the series) unless noted
Chain of UniProt Q03181 (Q03181 whole entry, looked up): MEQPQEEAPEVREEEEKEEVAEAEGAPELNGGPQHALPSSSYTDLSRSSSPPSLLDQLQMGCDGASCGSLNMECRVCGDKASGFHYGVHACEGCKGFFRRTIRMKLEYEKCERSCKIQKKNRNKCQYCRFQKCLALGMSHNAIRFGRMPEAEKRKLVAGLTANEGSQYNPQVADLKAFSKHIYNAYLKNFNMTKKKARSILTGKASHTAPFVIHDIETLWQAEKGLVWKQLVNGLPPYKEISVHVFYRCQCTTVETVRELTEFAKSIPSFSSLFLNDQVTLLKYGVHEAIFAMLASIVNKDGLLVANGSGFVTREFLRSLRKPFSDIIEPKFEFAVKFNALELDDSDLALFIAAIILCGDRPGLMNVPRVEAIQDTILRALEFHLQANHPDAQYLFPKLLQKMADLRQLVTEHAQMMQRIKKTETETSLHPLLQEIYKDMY
How it was run: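 Tox21 library screened in GeneBLAzer PPARd UAS-bla HEK293H cells. After compound treatment at 37 C, a FRET-based beta-lactamase substrate was applied for 2 h and fluorescence recorded.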

[7] = molecular target: Peroxisome proliferator-activated receptor delta (Homo sapiens) (UniProt Q03181); assay: qHTS assay to identify small molecule antagonists of the peroxisome proliferator-activated receptor delta (PPARd) signaling pathway (AID 743215; active = well fitted inhibition curve with a large enough effect in the signal ratio in the repeat runs, not every such curve was filed as active; inconclusive = weak or mixed curves, or effect the other way; inactive = no such curve, though single readings can be large or run the other way; the % refers to the signal ratio;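 also: cells stimulated with agonist L165041 at 300 nM final during compound exposure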; as to ratio activity, negative = inhibition: % is scaled to controls: 0 for no effect and ±100 for the full control effect); settings: HEK293H PPARd-UAS-bla, beta-lactamase FRET ratio, antagonist, 17 h; ratio activity, negative = inhibition: at 62 µM (top of the series) unless noted
How it was run: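 Cells: HEK293H with a UAS-driven beta-lactamase reporter responsive to PPARd. Compounds were co-added with L165041 (300 nM, final) and incubated 17 h at 37 C before a 2 h room-temperature FRET substrate step and fluorescence reading.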

[8] = molecular target: Bile acid receptor (Homo sapiens) (UniProt Q96RI1); assay: qHTS assay to identify small molecule antagonists of the farnesoid-X-receptor (FXR) signaling pathway (AID 743217; active = well fitted inhibition curve with a large enough effect in the signal ratio in the repeat runs, not every such curve was filed as active; inconclusive = weak or mixed curves, or effect the other way; inactive = no such curve, though single readings can be large or run the other way; the % refers to the signal ratio; as to activity change, negative = inhibition: % is scaled to controls: 0 for no effect and ±100 for the full control effect); settings: HEK293T FXR-UAS-bla, beta-lactamase ratio, CDCA-stimulated, 16 h; activity change, negative = inhibition: at 62.6 µM (top of the series) unless noted
Chain of UniProt Q96RI1 (Q96RI1 whole entry, looked up): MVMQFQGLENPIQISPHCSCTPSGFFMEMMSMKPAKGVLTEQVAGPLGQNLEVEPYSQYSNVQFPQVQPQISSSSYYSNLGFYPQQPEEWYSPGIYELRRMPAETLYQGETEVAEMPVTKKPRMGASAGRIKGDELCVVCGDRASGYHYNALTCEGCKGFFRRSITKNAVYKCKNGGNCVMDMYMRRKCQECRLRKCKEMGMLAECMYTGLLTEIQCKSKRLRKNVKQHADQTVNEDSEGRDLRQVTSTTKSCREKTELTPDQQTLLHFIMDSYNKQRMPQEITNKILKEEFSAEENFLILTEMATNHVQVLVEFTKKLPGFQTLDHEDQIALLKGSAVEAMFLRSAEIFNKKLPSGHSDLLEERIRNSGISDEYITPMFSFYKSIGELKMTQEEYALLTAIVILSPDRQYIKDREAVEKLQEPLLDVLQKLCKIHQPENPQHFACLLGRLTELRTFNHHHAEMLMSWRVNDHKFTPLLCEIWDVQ
How it was run: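 Cells carrying a UAS-driven beta-lactamase reporter (GeneBLAzer FXR-UAS-bla HEK 293T) were plated and rested 5 h at 37 °C. Compounds in DMSO were added alongside chenodeoxycholic acid agonist at 50 uM final and left 16 h at 37 °C before FRET substrate readout.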

[9] = qHTS assay to identify small molecule agonists of the farnesoid-X-receptor (FXR) signaling pathway - cell viability counter screen (AID 743218); settings: FXR-bla HEK293T viability, CellTiter-Glo luminescence, 16 h; viability change, negative = cytotoxic: at 62.6 µM (top of the series) unless noted; also: nearly all actives have a fitted effect of over 45% in size
How it was run: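 Cells were seeded, left 5 h at 37 C and 5% CO2, then dosed with compound in DMSO for 16 h. After the beta-lactamase FRET read, CellTiter-Glo was added and luminescence measured 30 min later.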

[10] = qHTS assay to identify small molecule antagonists of the farnesoid-X-receptor (FXR) signaling pathway - cell viability counter screen (AID 743221; active = well fitted cell-killing curve with a large enough effect in the repeat runs, not every such curve was filed as active; inconclusive = weak or mixed curves, or effect the other way; inactive = no such curve, though single readings can be large or run the other way; also: nearly all actives have a fitted effect of over 50% in size); settings: FXR-bla HEK293T viability, CellTiter-Glo luminescence, 16 h; activity change, negative = cytotoxicity: at 62.6 µM (top of the series)
How it was run: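 Multiplexed counter screen: viability of FXR-bla HEK 293T cells under agonist stimulation by chenodeoxycholic acid (50 uM, final) and test compound for 16 h at 37 C, measured by CellTiter-Glo luminescence in the reporter wells.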

[11] = molecular target: Vitamin D3 receptor (Homo sapiens) (UniProt P11473); assay: qHTS assay to identify small molecule antagonists of the vitamin D receptor (VDR) signaling pathway (AID 743223; active = well fitted inhibition curve with a large enough effect in the signal ratio in the repeat runs, not every such curve was filed as active; inconclusive = weak or mixed curves, or effect the other way; inactive = no such curve, though single readings can be large or run the other way; the % refers to the signal ratio); settings: VDR-UAS-bla HEK293T, beta-lactamase FRET ratio, 16 h; activity change, negative = inhibition: at 61 µM (top of the series) unless noted
Chain of UniProt P11473 (P11473 whole entry, looked up): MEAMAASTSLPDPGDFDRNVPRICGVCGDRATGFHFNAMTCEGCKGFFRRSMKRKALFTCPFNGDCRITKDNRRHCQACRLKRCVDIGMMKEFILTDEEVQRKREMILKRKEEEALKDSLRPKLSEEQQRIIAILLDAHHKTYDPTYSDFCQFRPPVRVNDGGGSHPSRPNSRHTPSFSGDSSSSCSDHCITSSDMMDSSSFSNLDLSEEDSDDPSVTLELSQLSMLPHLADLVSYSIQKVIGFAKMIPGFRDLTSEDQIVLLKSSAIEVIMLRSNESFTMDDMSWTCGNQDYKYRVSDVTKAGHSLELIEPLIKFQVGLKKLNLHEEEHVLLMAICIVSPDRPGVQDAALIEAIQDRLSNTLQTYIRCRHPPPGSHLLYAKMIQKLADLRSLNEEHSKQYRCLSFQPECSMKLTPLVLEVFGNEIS
How it was run: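 Cells carrying a VDR-driven beta-lactamase reporter (VDR-bla) were co-treated with compound and 3 nM final 1alpha,25-dihydroxyvitamin D3 for 16 h at 37C; reporter activity was measured as FRET substrate fluorescence after 2 h at room temperature.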

[12] = qHTS assay to identify small molecule antagonists of the vitamin D receptor (VDR) signaling pathway - cell viability counter screen (AID 743225); settings: VDR-bla HEK293T viability, CellTiter-Glo luminescence, 16 h; viability change, negative = cytotoxic: at 61 µM (top of the series) unless noted; also: nearly all actives have a fitted effect of over 50% in size
How it was run: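 HEK293T VDR-bla; cpd + 1a,25-(OH)2D3 3 nM final, 16 h 37C/5% CO2; B/G FRET substrate 2 h RT; then CellTiter-Glo 30 min RT, luminescence.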

[13] = qHTS assay to identify small molecule agonists of the peroxisome proliferator-activated receptor delta (PPARd) signaling pathway - cell viability counter screen (AID 743211); settings: PPARd-bla HEK293H viability, CellTiter-Glo luminescence, 17 h; activity change, negative = cytotoxicity: at 62.6 µM (top of the series); also: nearly all actives have a fitted effect of over 55% in size
How it was run: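 Counter screen for cytotoxicity run in parallel with the PPARd reporter screen. Beta-lactamase reporter HEK293H cells exposed to compounds 17 h; ATP-based CellTiter-Glo luminescence quantified viability.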

[14] = molecular target: Vitamin D3 receptor (Homo sapiens) (UniProt P11473); assay: qHTS assay to identify small molecule agonists of the vitamin D receptor (VDR) signaling pathway (AID 743222; calls by dose curve); settings: HEK293T VDR-UAS-bla, beta-lactamase FRET ratio, 16 h; activation: at 63.5 µM (top of the series) unless noted
How it was run: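 Cells carrying a VDR-driven beta-lactamase reporter are seeded at 2,000 per well and rested 4 h. Compounds in DMSO are added for 16 h at 37C, and FRET substrate fluorescence is measured after 2 h at room temperature.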

[15] = qHTS assay to identify small molecule antagonists of the peroxisome proliferator-activated receptor delta (PPARd) signaling pathway - cell viability counter screen (AID 743213); settings: PPARd-bla HEK293H viability, CellTiter-Glo luminescence, 17 h; viability change, negative = cytotoxic: at 62 µM (top of the series) unless noted; also: nearly all actives have a fitted effect of over 50% in size
How it was run: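 Luminescence from CellTiter-Glo, added after the bla read and incubated 30 min at room temperature, gives viability of HEK293H PPARd-bla cells exposed to compounds for 17 h at 37 C with 300 nM L165041.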

[16] = qHTS assay for small molecule agonists of the antioxidant response element (ARE) signaling pathway - cell viability counter screen (AID 743203; calls by dose curve; also: nearly all actives have a fitted effect of over 55% in size); settings: ARE-bla HepG2 viability, CellTiter-Glo luminescence, 16 h; viability change, negative = cytotoxic: at 73.3 µM (top of the series)
How it was run: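 Cytotoxicity was tested in parallel with the ARE reporter screen. ARE-bla HepG2 cells were exposed to compounds for 16 hrs, and viability was taken from CellTiter-Glo luminescence.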

[17] = molecular target: Bile acid receptor (Homo sapiens) (UniProt Q96RI1); assay: qHTS assay to identify small molecule agonists of the farnesoid-X-receptor (FXR) signaling pathway (AID 743220; active = well fitted activation curve with a large enough effect in the signal ratio in the repeat runs, not every such curve was filed as active; inconclusive = weak or mixed curves, or effect the other way; the % refers to the signal ratio); settings: HEK293T FXR-UAS-bla, beta-lactamase FRET ratio, 16 h; activation: at 62.6 µM (top of the series) unless noted
How it was run: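 FXR-UAS-bla HEK 293T cells carrying a UAS-driven beta-lactamase reporter were plated for 5 h at 37C/5% CO2, then exposed to DMSO-dissolved Tox21 10K compounds for 16 h at 37C. A LiveBLAzer B/G FRET substrate was loaded for 2 h at room temperature before fluorescence reading.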

[18] = ratio activity, negative = inhibition: at 62.6 µM (top of the series) unless noted
Potency is read from the fitted curve at half-maximal effect; tags tell the direction and shape of the fitted curve or compound fluorescence and quenching.

COc1cccc(-c2ccc(/C=C\CN3CCCCCC3)cc2Cl)c1
active: Potency [2] 43.4 µM
inactive: Potency [7] | Potency [8]
inconclusive: Potency [1, 18] 48.7 µM [inhibitor, single point] | Potency [3] 60.9 µM | Potency [4] 54.7 µM [cytotoxic, single point] | Potency [5] 34.5 µM | activation [6] -12.6% | Potency [9] 54.7 µM [cytotoxic, single point] | Potency [10] 38.7 µM [falling, partial curve, poor fit] | Potency [11] 48.7 µM [rising, single point] | Potency [12] 48.7 µM [cytotoxic, single point]

CC(C)(C)NC(=O)[C@@H]1C[C@@H]2CCCC[C@@H]2CN1C[C@@H](O)[C@H](Cc1ccccc1)NC(=O)[C@H](CC(N)=O)NC(=O)c1ccc2ccccc2n1
active: Potency [2] 49.6 µM | Potency [13] 35.1 µM | Potency [9] 55.7 µM
inconclusive: Potency [1, 18] 14 µM [rising, partial curve] | Potency [3] 69.5 µM [falling, single point] | Potency [4] 62.5 µM [cytotoxic, partial curve, poor fit] | Potency [5] 59 µM | Potency [7] 49.6 µM [rising, partial curve, poor fit] | Potency [8] 55.7 µM [single point] | Potency [10] 55.7 µM [falling, single point] | Potency [14] 49.6 µM [partial curve] | Potency [11] 55.7 µM | Potency [12] 55.7 µM [cytotoxic, single point]

O=C1CCCCCN1
inactive: ratio activity, negative = inhibition ([1]; at 62.6 µM (top of the series)) 0.582% | Potency [11]
inconclusive: ratio activity, negative = inhibition [1, 18] 5.46% | Potency [9] 34.8 µM [rising, partial curve, poor fit]

N#CSCSc1nc2ccccc2s1
active: Potency [2] 7.76 µM | Potency [15] 4.9 µM | Potency [12] 15.5 µM
inconclusive: Potency [1, 18] 54.9 µM | Potency [3] 68.6 µM [single point] | Potency [4] 4.9 µM [cytotoxic, full curve, poor fit] | Potency [5] 50.9 µM | Potency [13] 9.77 µM [cytotoxic, full curve] | activation [6] -11.6% | Potency [7] 34.7 µM [partial curve] | Potency [8] 61.6 µM [inhibitor, single point] | Potency [10] 24.5 µM [falling, full curve] | Potency [14] 12.3 µM [partial curve] | Potency [11] 27.5 µM [rising, partial curve]

Clc1ccc(C(Cn2ccnc2)OCc2c(Cl)cccc2Cl)c(Cl)c1 (centres undefined)
active: Potency [8] 21.1 µM | Potency [9] 21.1 µM | Potency [17] 10.6 µM
inconclusive: ratio activity, negative = inhibition [1, 18] 1.75% | Potency [2] 47.3 µM [cytotoxic, partial curve, poor fit] | Potency [3] 26.6 µM [falling, partial curve] | Potency [16] 29.8 µM [cytotoxic] | Potency [4] 33.5 µM [cytotoxic] | Potency [15] 33.5 µM [cytotoxic, single point] | Potency [11] 26.8 µM [inhibitor, single point]

CC(C)(c1cc(Br)c(OCCO)c(Br)c1)c1cc(Br)c(OCCO)c(Br)c1
inconclusive: Potency [1, 18] 6.03 µM [rising, partial curve] | Potency [3] 21.2 µM [falling, full curve] | Potency [6] 47.9 µM [rising, single point] | Potency [7] 30.2 µM | Potency [8] 21.4 µM [rising, partial curve] | Potency [10] 47.9 µM [falling, single point] | Potency [11] 47.9 µM
active: Potency [2] 17 µM | Potency [4] 17 µM | Potency [13] 15.1 µM | Potency [9] 19.1 µM

— PubChem BioAssay (Tox21)
